Measured values from US4670460A, “Inhibiting lipoxygenase with pyrazolone derivatives” (Bayer Aktiengesellschaft, priority 1983, dated 1987).
The name of at least one read-out is uncertain.

Each molecule was assayed against T1, lipoxygenase (Homo sapiens, UniProt P09917) (assay: Inhibition of LTB4 biosynthesis (lipoxygenase-inhibiting action) in human PMN leucocytes stimulated with ionophor A 23187). Settings: concentration 5.10^-6 g/ml.
T1 construct: endogenous in cells; host or cells: human PMN leucocytes isolated from heparinized blood
T1 sequence (P09917 1-674): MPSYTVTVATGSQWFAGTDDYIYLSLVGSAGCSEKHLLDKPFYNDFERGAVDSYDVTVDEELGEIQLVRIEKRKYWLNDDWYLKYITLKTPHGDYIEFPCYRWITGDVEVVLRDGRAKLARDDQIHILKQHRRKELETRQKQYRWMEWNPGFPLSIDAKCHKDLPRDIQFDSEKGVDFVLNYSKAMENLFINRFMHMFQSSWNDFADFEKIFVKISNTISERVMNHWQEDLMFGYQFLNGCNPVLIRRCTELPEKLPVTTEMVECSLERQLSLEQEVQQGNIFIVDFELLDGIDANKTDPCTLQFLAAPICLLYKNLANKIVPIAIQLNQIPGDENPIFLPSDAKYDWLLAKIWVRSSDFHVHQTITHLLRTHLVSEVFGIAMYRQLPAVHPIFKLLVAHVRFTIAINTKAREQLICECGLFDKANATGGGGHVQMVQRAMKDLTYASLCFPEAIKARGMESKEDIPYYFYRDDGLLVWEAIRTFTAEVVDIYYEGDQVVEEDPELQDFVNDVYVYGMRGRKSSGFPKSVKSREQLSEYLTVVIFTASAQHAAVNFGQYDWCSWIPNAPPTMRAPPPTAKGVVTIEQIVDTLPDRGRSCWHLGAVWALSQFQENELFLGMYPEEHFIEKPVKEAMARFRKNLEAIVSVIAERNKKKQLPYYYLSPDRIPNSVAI
Assay type: cell-based
Experimental: The human PMN leucocytes (>95%) used in the present example were obtained from heparinized complete blood by dextran sedimentation and subsequent density gradient separation (Ficoll-Paque) (compare A. Boyum, Scand. J. Immunol., 5, Suppl. 5, 9, 1976).
2×10^7 cells/ml were suspended in Dulbecco phosphate buffer containing Ca^2+ and were incubated with radioactively labelled arachidonic acid and the calcium ionophor A 23187 in the presence or absence of lipoxygenase inhibitor. After 15 minutes, the labelled lipoxygenase products were extracted from the acidified incubation medium and were separated by thin layer chromatography using a mobile phase mixture suitable for the leukotrienes (5-HETE-LTB4) (compare B. Jakschik et al., Biochem. Biophys. Res. Commun., 102, 624, 1981).
The distribution of the activity amongst the various metabolites was measured by a thin layer scanner. It is a measure of the lipoxygenase-inhibiting action of a test substance at a certain concentration.
The lipoxygenase metabolites were also additionally determined independently by means of high pressure liquid chromatography. This method enables the endogenous arachidonic acid metabolism to be studied with the aid of UV detection of the leukotrienes. In this method, the cells were treated as described above, with the exception that no radioactively labelled arachidonic acid was added exogenously. The high pressure liquid chromatography was carried out on Lichrosorb RP-18 (5 μm) columns. The mobile phase was methanol/water/glacial acetic acid 69/31/0.01. The flow rate was 1 ml/minute. Leukotriene B4 was determined at 280 nm and the HETE derivatives were determined at 232 nm, in each case by means of UV absorption.

**Q.** For `CC1=NN(CCOc2cccc3ccccc23)C(=O)C1`, which “Inhibition (%) of LTB4 biosynthesis” value is on record?
**A.** 87%

**Q.** How did the “Inhibition (%) of LTB4 biosynthesis” value turn out when `CCCCC1C(=O)N(CCOc2ccc3c(Br)cccc3c2)N=C1C` (centres unmarked) was run?
**A.** 87%

**Q.** `O=C1CC(C2CCCCC2)=NN1CCCc1ccccc1` was tested. Which “Inhibition (%) of LTB4 biosynthesis” value did it give?
**A.** 92%

**Q.** For `CC1=NN(CCOc2ccc(Cl)c(C)c2)C(=O)C1`, which “Inhibition (%) of LTB4 biosynthesis” value is on record?
**A.** 92%

**Q.** How did the “Inhibition (%) of LTB4 biosynthesis” value turn out when `O=C1CC(CO)=NN1CCOc1ccc2ccccc2c1` was run?
**A.** 61%

**Q.** For `CC(=O)OCC1=NN(CCOc2ccc3ccccc3c2)C(=O)C1`, which “Inhibition (%) of LTB4 biosynthesis” value is on record?
**A.** 52%

**Q.** Which “Inhibition (%) of LTB4 biosynthesis” value does the source give for `COCC1=NN(CCOc2ccc3ccccc3c2)C(=O)C1` here?
**A.** 80%

**Q.** With `CC1=NN(CCc2cccc3ccccc23)C(=O)C1` [drawing 28] as the molecule, how does the “Inhibition (%) of LTB4 biosynthesis” value read?
**A.** 75%

Same assay, conditions: concentration 5.10^-7 g/ml

**Q.** Which “Inhibition (%) of LTB4 biosynthesis” value does the source give for `CC(C)CC1=NN(CCOc2ccc3ccccc3c2)C(=O)C1` here?
**A.** 89%

**Q.** Which “Inhibition (%) of LTB4 biosynthesis” value does the source give for `CC1=NN(CCOc2cccc3ccccc23)C(=O)C1` here?
**A.** 30%

**Q.** For `CCCCC1C(=O)N(CCOc2ccc3c(Br)cccc3c2)N=C1C` (centres unmarked), which “Inhibition (%) of LTB4 biosynthesis” value is on record?
**A.** 31%

**Q.** How did the “Inhibition (%) of LTB4 biosynthesis” value turn out when `CC1=NN(CCOc2ccccc2-c2ccccc2)C(=O)C1` [drawing 18] was run?
**A.** 63%

**Q.** For `CCC1C(=O)N(CCOc2ccc3c(Br)cccc3c2)N=C1C` (centres unmarked) [drawing 20], which “Inhibition (%) of LTB4 biosynthesis” value is on record?
**A.** 82%

**Q.** `CC1=NN(CCOc2ccc3ccccc3c2)C(=O)C1C` (centres unmarked) [drawing 22] was tested. Which “Inhibition (%) of LTB4 biosynthesis” value did it give?
**A.** 75%
